Reference: article PMC11995724, “Antibiotic target discovery by integrated phenotypic and activity-based profiling of electrophilic fragments” (Cell chemical biology, 2025)
Out of some 3,200 compounds screened, about 110 (3.4%) showed an effect of 50% or more. Some of the results follow.

System: T1, V. cholerae SAD30
T1 construct: SAD30
Design: species or system S. aureus MSSA476 (TSB) or V. cholerae SAD30 (LB); 384-well bacterial growth screen at 25 uM, OD600 relative to DMSO control
Details: relative growth, OD600, LB; 25 µM; inhibitor

Compared with `C=CC(=O)N1CCCCC1C1CCCO1` (centres unmarked) [2-L21, 1-[2-(oxolan-2-yl)piperidin-1-yl]prop-2-en-1-one], `C=CC(=O)N1CCC(c2nnc3n2CCCC3)CC1` [2-J21, 1-(4-{5H,6H,7H,8H-[1,2,4]triazolo[4,3-a]pyridin-3-yl}piperidin-1-yl)prop-2-en-1-one] is higher in “% of control remaining” value: 95.7541% for the first, 102.702% for the second.

First: CCc1ccc(NC(=O)C(C)Cl)cc1 (centres unmarked) [4-L15, 2-chloro-N-(4-ethylphenyl)propanamide]
Second: CC(Cl)C(=O)NC1CCc2nc(-c3cc(F)ccc3F)cn2C1 (centres unmarked) [7-K10, 2-chloro-N-[2-(2,5-difluorophenyl)-5H,6H,7H,8H-imidazo[1,2-a]pyridin-6-yl]propanamide]
The “% of control remaining” value of the first is higher: 96.9592% for the first, 75.8632% for the second.

First: CC(Cl)C(=O)N1CCN(C(=O)C(F)(F)F)C2(CCCCC2)C1 (centres unmarked) [7-K06, 2-chloro-1-[1-(2,2,2-trifluoroacetyl)-1,4-diazaspiro[5.5]undecan-4-yl]propan-1-one]
Second: CC(Cl)C(=O)N1CCN(C2=NS(=O)(=O)c3ccccc32)CC1 (centres unmarked) [7-K11, 3-[4-(2-chloropropanoyl)piperazin-1-yl]-1lambda6,2-benzothiazole-1,1-dione]
The “% of control remaining” value of the first is lower: 75.3345% for the first, 77.4492% for the second.

Going from `CCc1nocc1CN(C)C(=O)C(C)Cl` (centres unmarked) [7-M06, 2-chloro-N-[(3-ethyl-1,2-oxazol-4-yl)methyl]-N-methylpropanamide] to `CC(Cl)C(=O)NC(C)c1ncn(C)n1` (centres unmarked) [6-P13, 2-chloro-N-[1-(1-methyl-1H-1,2,4-triazol-3-yl)ethyl]propanamide], the “% of control remaining” value rises from 82.6037% to 99.0426%.

First: C=CC(=O)Nc1ccc(C(=O)NCC2CSCCS2)cc1 (centres unmarked) [2-K21, N-[(1,4-dithian-2-yl)methyl]-4-(prop-2-enamido)benzamide]
Second: C=CC(=O)NCc1ccc(C(=O)N2CCC[C@H]2C(=O)NC)cc1 [3-L06, (2S)-N-methyl-1-{4-[(prop-2-enamido)methyl]benzoyl}pyrrolidine-2-carboxamide]
The “% of control remaining” value of the first is higher: 95.2909% for the first, 95.0891% for the second.

First: Cc1nc([C@H]2CCCN2C(=O)C(C)Cl)cs1 (stereo partly drawn) [7-O04, 2-chloro-1-[(2R)-2-(2-methyl-1,3-thiazol-4-yl)pyrrolidin-1-yl]propan-1-one]
Second: C=CC(=O)NC1CCCN(Cc2ccccc2)C1=O (centres unmarked) [2-L13, N-(1-benzyl-2-oxopiperidin-3-yl)prop-2-enamide]
The “% of control remaining” value of the first is lower: 87.7581% for the first, 88.4975% for the second.

Going from `C=CC(=O)Nc1cnoc1C(C)C` [3-L10, N-[5-(propan-2-yl)-1,2-oxazol-4-yl]prop-2-enamide] to `C=CC(=O)N[C@H](C)c1ccccc1OC(C)C` [3-N16, N-[(1R)-1-[2-(propan-2-yloxy)phenyl]ethyl]prop-2-enamide], the “% of control remaining” value rises from 94.3834% to 95.9713%.

First: Cc1cc(C)c(-c2cc(NC(=O)CCl)n(-c3ccccc3)n2)cc1C [6-A10, 2-chloro-N-[1-phenyl-3-(2,4,5-trimethylphenyl)-1H-pyrazol-5-yl]acetamide]
Second: Cc1nn(-c2ccccc2)c(C)c1CNC(=O)CCl [6-I08, 2-chloro-N-[(3,5-dimethyl-1-phenyl-1H-pyrazol-4-yl)methyl]acetamide]
The “% of control remaining” value of the first is higher: 102.986% for the first, 96.4641% for the second.

Going from `C=CC(=O)N(Cc1cc2cccc(OC)c2o1)[C@@H]1C[C@H]2CC[C@@H]1O2` (racemic) [1-J13, rac-N-[(7-methoxy-1-benzofuran-2-yl)methyl]-N-[(1R,2S,4S)-7-oxabicyclo[2.2.1]heptan-2-yl]prop-2-enamide] to `C=CC(=O)N(CC(C)(C)C)C1CCN(c2ccc(C#N)cn2)CC1` [1-N09, N-[1-(5-cyanopyridin-2-yl)piperidin-4-yl]-N-(2,2-dimethylpropyl)prop-2-enamide], the “% of control remaining” value rises from 76.6816% to 82.8102%.

Going from `N#Cc1ccccc1NC(=O)CCl` [5-P04, 2-chloro-N-(2-cyanophenyl)acetamide] to `N#CC(=Cc1cccs1)C(=O)Nc1ccccc1Cl` [9-L11, N-(2-chlorophenyl)-2-cyano-3-(thiophen-2-yl)prop-2-enamide], the “% of control remaining” value falls from 116.339% to 87.3555%.

First: CCCn1c(C)cc(C=C(C#N)C(=O)N2CCC2)c1C [8-L08, 2-(azetidine-1-carbonyl)-3-(2,5-dimethyl-1-propyl-1H-pyrrol-3-yl)prop-2-enenitrile]
Second: C=CC(=O)N1CCC(C(=O)Nc2cc(Cl)ccc2SCC)CC1 [1-E06, N-[5-chloro-2-(ethylsulfanyl)phenyl]-1-(prop-2-enoyl)piperidine-4-carboxamide]
The “% of control remaining” value of the first is lower: 60.707% for the first, 79.2227% for the second.

First: O=C(CCl)C1CCC2(CC1)CC2 [10-C17, 2-chloro-1-{spiro[2.5]octan-6-yl}ethan-1-one]
Second: C=CC(=O)N1CCCC(n2ccnn2)C1 (centres unmarked) [1-D09, 1-[3-(1H-1,2,3-triazol-1-yl)piperidin-1-yl]prop-2-en-1-one]
The “% of control remaining” value of the first is higher: 115.488% for the first, 92.2272% for the second.

Going from `COc1ccc(C2=NN(C(=O)CCl)C(c3ccc(F)cc3)C2)cc1` (centres unmarked) [4-M20, 2-chloro-1-[5-(4-fluorophenyl)-3-(4-methoxyphenyl)-4,5-dihydro-1H-pyrazol-1-yl]ethan-1-one] to `C=CC(=O)NC(C)c1ccc(Oc2ccccc2)c(F)c1` (centres unmarked) [2-H13, N-[1-(3-fluoro-4-phenoxyphenyl)ethyl]prop-2-enamide], the “% of control remaining” value falls from 100.927% to 84.6377%.

Going from `C=CC(=O)NCc1cscn1` [1-I07, N-[(1,3-thiazol-4-yl)methyl]prop-2-enamide] to `C=CC(=O)NCc1ccc(C(=O)N2CCCOC(C)(C)C2)cc1` [3-N06, N-{[4-(2,2-dimethyl-1,4-oxazepane-4-carbonyl)phenyl]methyl}prop-2-enamide], the “% of control remaining” value rises from 90.1345% to 99.6765%.

`N#CC(=CC=Cc1ccccc1)C(=O)Nc1ccc(F)c(Cl)c1` [8-O18, N-(3-chloro-4-fluorophenyl)-2-cyano-5-phenylpenta-2,4-dienamide] was tested, and the “% of control remaining” value was 78.9259%.
